# Source: article PMC6212790
# The other results are listed elsewhere or left out. At the low end of the ranking the order means little.
# Molecular target: T1, GST-Rok (full length) (UniProt O34857)
# T1 sequence: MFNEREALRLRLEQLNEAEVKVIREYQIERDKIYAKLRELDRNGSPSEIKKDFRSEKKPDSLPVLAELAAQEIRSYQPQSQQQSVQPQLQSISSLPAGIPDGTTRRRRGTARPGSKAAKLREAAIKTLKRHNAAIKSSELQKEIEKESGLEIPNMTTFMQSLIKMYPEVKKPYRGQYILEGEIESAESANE
# Test: protein binding microarray;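 further: rank score from −0.5 (least bound) to 0.5 (best bound)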
# Conditions: Rok is a gene silencer of Bacillus subtilis; high values mean tight binding; most listed sequences are background and not binding sites; double strand, one strand shown
row,Sequence,binding signal [E-score]
1,CAAGGCCG,-0.303
2,GCCTTGCA,-0.276
3,CCAGGCAG,-0.238
4,ACCGAGGT,0.0218
5,CCTTCTTA,0.0503
6,AGGAACAC,-0.213
7,CACACTGA,-0.128
8,ACATTGGG,0.0748
9,ACTTGTGG,-0.084
10,TGATCACA,-0.0801
11,GCAGAATA,0.151
12,ACCTAACA,0.207
13,ACTACACG,0.301
14,AGGTTCCG,-0.205
15,ACTCAGAC,-0.0928
16,GTAGACGA,0.101
17,ATTGGCCC,-0.208
18,CTAAACAA,-0.161
19,AAACTCAG,0.0227
20,CTGAACGC,-0.181
21,AGGCATGA,-0.0258
22,GAATGTAA,0.21
23,CTACGGAA,0.156
24,TAATTTCA,0.273
25,CAAGGTCC,-0.251

row,Sequence,binding signal [E-score]
1,CCTTGGCA,-0.21
2,CTGCACTC,-0.166
3,CACGGCAA,0.154
4,CATCGACA,0.0503
5,AGGGTGAG,-0.19
6,CTAGACAC,0.0291
7,CTAAACTA,0.336
8,ACTGAGGG,-0.231
9,CTGTTCCC,-0.158
10,GCAAGTGA,0.0069
11,AAGTTCGC,0.139
12,AGCGATTC,-0.0838
13,AATAGGCG,-0.147
14,CACCATTA,0.0427
15,CCATAGGC,-0.214
16,GTATGAAA,0.127
17,CCGGACAA,-0.212
18,AACCTATG,0.00792
19,AAAGATGT,-0.00554
20,AAAAAACA,0.109
21,AGTTTCAA,0.0274
22,GAAACGCC,-0.216
23,ATATTTAA,0.387
24,CAGCGGTC,-0.296
25,GACCTCCC,-0.366

row,Sequence,binding signal [E-score]
1,GCTAACAC,-0.0118
2,GAGCACAA,-0.121
3,AGATGGGG,-0.161
4,AAGTCTGA,-0.121
5,AATTAACG,0.0615
6,GTCTGCTA,0.0243
7,CAGCGCAA,0.0886
8,AGGGGCAA,-0.338
9,CGGAGGAC,-0.293
10,GAGAGGCC,-0.345
11,ATGGTGAA,0.136
12,ATTCCCAA,-0.059
13,CGAATTCC,-0.0872
14,CATGAGTA,0.253
15,CGTTATCC,-0.111
16,CCTATACG,-0.0834
17,TATGCCGA,-0.13
18,CGTGGGAG,-0.291
19,GTGCAAAC,-0.0482
20,CAAGACAC,-0.281
21,AGGTGTTC,-0.0893
22,CCGCCGTA,-0.238
23,AAAATCGG,-0.106
24,CTATGTGA,0.103
25,ATCATCTC,-0.0777

row,Sequence,binding signal [E-score]
1,ATGAGCGA,-0.0103
2,TGGGGTAA,-0.0712
3,CATGCGCC,-0.332
4,AGTACCGG,0.103
5,GATCTCAC,-0.0224
6,CGTAGGCC,-0.17
7,CTCGAATA,0.185
8,GGGGTGTA,-0.097
9,CAAGTGGC,0.00246
10,CGCGTAAG,-0.0783
11,GCTCCTTA,-0.176
12,CATTGTCC,-0.183
13,CAGCCAGC,-0.245
14,CCCTCGAG,-0.22
15,ATTAAACA,-0.0504
16,CATACCGA,0.0564
17,CCTCGCCA,-0.301
18,ACTACCCT,0.133
19,AACCCATA,0.207
20,CCTCCAAA,-0.168
21,CCTGACTA,-0.0238
22,ATGCTGGC,-0.00906
23,TCACATGA,0.0464
24,GGATCTCA,-0.0769
25,AGTAATTG,0.29

row,Sequence,binding signal [E-score]
1,CGATAGTA,0.384
2,AAGAAGAA,-0.237
3,ACACTGGT,-0.0469
4,TCACTCGA,-0.0802
5,AGGGACGA,-0.238
6,ACTGCAAA,-0.0118
7,CATCTGAG,-0.0222
8,ACAGGACT,-0.175
9,AACCGCTA,0.0839
10,GCGGGTCA,-0.239
11,CCGATTAC,-0.0661
12,ACCGTGAA,-0.000381
13,GGGACACA,-0.236
14,ATGCGTGC,-0.243
15,ACGGGGCC,-0.148
16,AAATGGGT,0.263
17,AATAGTAC,0.302
18,CCCTAACG,-0.274
19,GCGCACGA,-0.168
20,CCGTTTCC,-0.204
21,AGTGGTCA,-0.0224
22,CCCGATTA,-0.0137
23,CGGGATAA,0.0383
24,ATGAATCC,0.0418
25,ATGTTCTC,0.0524

row,Sequence,binding signal [E-score]
1,AACTAGCT,0.317
2,ACTCCCAT,-0.17
3,CATGTCGA,0.135
4,GATCATGA,0.0532
5,AACATTGG,0.058
6,ACCGCCGT,-0.0488
7,GCAATTCA,0.00634
8,AGCGGAGG,-0.254
9,CCTTGACC,-0.0779
10,GCTGATAC,-0.0816
11,CCACAAGA,-0.0615
12,GCACTTCC,-0.081
13,ACGGGTGG,-0.0585
14,CGGCAAAC,0.138
15,TATAATAA,0.33
16,AGTCGCCC,-0.219
17,GGTGTCAC,-0.0752
18,ACTGAAGC,-0.0066
19,CACTAGGC,-0.166
20,CACGACTA,-0.0277
21,CTCAGTAC,-0.0326
22,AATAAATA,0.345
23,GATATACC,0.291
24,CGAATTTC,0.0633
25,GAGTCACA,-0.0916

row,Sequence,binding signal [E-score]
1,ATTGTAAC,0.231
2,ACCGCGAG,-0.221
3,ACAGAAAC,0.163
4,ATGCATCC,-0.0683
5,CATAGACC,-0.153
6,AGTGTGGC,-0.24
7,ACTCTCAA,-0.131
8,TTCCAGAA,0.0972
9,TCGGTGAA,-0.0505
10,ATCCAAGA,0.0878
11,GCTCTGCA,-0.148
12,CCCTTACA,-0.136
13,CAGGAGCG,-0.0647
14,AACGCGGA,-0.00907
15,GACCGAGC,-0.252
16,CCCAGTCA,-0.201
17,AACAAACG,-0.0135
18,ACCACCTA,0.0972
19,CAGGCGTC,-0.224
20,GTACTCTA,0.207
21,CACACCGC,0.0286
22,ATTTCGAA,0.251
